# In the supplement of paper PMC8728848:
# This is one part of the list.
# B1: PX9937B-bvu-524-33-524 (Bacteroides vulgatus) (protein)
# chain: GTAYWKNPDQFTAFNTGLHALLREKSYNFFLLGEPRADIYGDNPIGGEASQGMERLPFNTINKENVGISNYGDMYKIINQINQMIAKTTETTILTEATQNYYLGEAYGMRAYLYFHLLRSWGDVVLYLDYTEGQNLDLSNITKGVSPATEVMEQIKKDIQASENAFGSDYSFKLGRHFWSAAATQMLKGEAYLWSGRQMNGGNSDYTIAKNAFENVKKADVGLVTSSFKDIFSFENKKNKEMIFTIHNGKDEYEMWGGYYRMRLIPAQDKMVKIYCDENGNSFVGTPDAQLNGLTQLQVRREFYFKGFRNNDTRWTTSLKAVYKKDAQGVVSYFGPITYKFQGTMLEGGSTRSFLDDFPIYRYADCLLQLAMAKVLLGEDPTEEINAVRERAYGSKYFNEHKAEIAYPNDNDPEFYTDNKWMKPDNAGALEAILKERLREFMFEGKRWYDIRLLGWDYVHQYSSAEQSRLLWPIDAGTLTNNSALKQTPGYE
# Experiments:
# Assay in all cases: glycan array binding signal (z-score within array); higher = stronger binding
# Settings in all cases: glycan notation: IUPAC condensed, linker removed
# Fuc(a1-3)GlcNAc = target: Fuc(a1-3)GlcNAc
# Outline: (§1)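 Columns mapping to the same glycan were averaged after glycan names were converted to IUPAC-condensed notation. The data come from 3228 arrays in the Consortium for Functional Glycomics database, limited to those with an available protein sequence. Binding is reported as a within-array Z-score averaged across arrays of one protein sequence and across linkers.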
# [1] = target: Fuc(a1-3)[Gal(b1-4)]Glc6S
# Outline: as §1
# [2] = target: Fuc(a1-3)[Gal(b1-4)]GlcNAc
# Outline: as §1
# [3] = target: Fuc(a1-3)[Gal(b1-4)]GlcNAc(b1-2)Man
# Outline: as §1
# [4] = target: Fuc(a1-3)[Gal(b1-4)]GlcNAc(b1-2)Man(a1-3)[Fuc(a1-3)[Gal(b1-4)]GlcNAc(b1-2)Man(a1-6)]Man(b1-4)GlcNAc(b1-4)GlcNAc
# Outline: as §1
# [5] = target: Fuc(a1-3)[Gal(b1-4)]GlcNAc(b1-2)Man(a1-3)[Fuc(a1-3)[Gal(b1-4)]GlcNAc(b1-2)Man(a1-6)]Man(b1-4)GlcNAc(b1-4)[Fuc(a1-6)]GlcNAc
# Outline: as §1
# [6] = target: Fuc(a1-3)[Gal(b1-4)]GlcNAc(b1-3)Gal(b1-3)[Fuc(a1-4)]GlcNAc
# Outline: as §1
# [7] = target: Fuc(a1-3)[Gal(b1-4)]GlcNAc(b1-3)Gal(b1-4)[Fuc(a1-3)]GlcNAc
# Outline: as §1
# [8] = target: Fuc(a1-3)[Gal(b1-4)]GlcNAc(b1-3)Gal(b1-4)[Fuc(a1-3)]GlcNAc(b1-3)Gal(b1-4)[Fuc(a1-3)]GlcNAc
# Outline: as §1
# [9] = target: Fuc(a1-3)[Gal(b1-4)]GlcNAc(b1-3)GalNAc
# Outline: as §1
# [10] = target: Fuc(a1-3)[Gal(b1-4)]GlcNAc(b1-6)GalNAc
# Outline: as §1
# [11] = target: Fuc(a1-3)[Gal(b1-4)]GlcNAc(b1-6)[Gal(b1-3)GlcNAc(b1-3)]Gal(b1-4)Glc
# Outline: as §1
# [12] = target: Fuc(a1-3)[Gal(b1-4)]GlcNAc6S
# Outline: as §1
# [13] = target: Fuc(a1-3)[Gal3S(b1-4)]Glc
# Outline: as §1
# [14] = target: Fuc(a1-3)[Gal3S(b1-4)]GlcNAc
# Outline: as §1
# [15] = target: Fuc(a1-3)[Gal3S(b1-4)]GlcNAc6S
# Outline: as §1
# [16] = target: Fuc(a1-3)[GalNAc(b1-4)]GlcNAc
# Outline: as §1
# [17] = target: Fuc(a1-3)[GalNAc(b1-4)]GlcNAc6S
# Outline: as §1
# Fuc(a1-4)GlcNAc = target: Fuc(a1-4)GlcNAc
# Outline: as §1
# Fuc(b1-3)GlcNAc = target: Fuc(b1-3)GlcNAc
# Outline: as §1
# Gal(a1-2)Gal = target: Gal(a1-2)Gal
# Outline: as §1
# Gal(a1-3)Gal = target: Gal(a1-3)Gal
# Outline: as §1
# Gal(a1-3)Gal(b1-3)GlcNAc = target: Gal(a1-3)Gal(b1-3)GlcNAc
# Outline: as §1
# [18] = target: Gal(a1-3)Gal(b1-3)GlcNAc(b1-2)Man
# Outline: as §1
# [19] = target: Gal(a1-3)Gal(b1-3)GlcNAc(b1-2)Man(a1-3)[Gal(a1-3)Gal(b1-3)GlcNAc(b1-2)Man(a1-6)]Man(b1-4)GlcNAc(b1-4)GlcNAc
# Outline: as §1
# [20] = target: Gal(a1-3)Gal(b1-3)GlcNAc(b1-3)GalNAc
# Outline: as §1
# [21] = target: Gal(a1-3)Gal(b1-3)GlcNAc(b1-6)GalNAc
# Outline: as §1
# [22] = target: Gal(a1-3)Gal(b1-3)[Fuc(a1-4)]GlcNAc(b1-2)Man(a1-3)[Gal(a1-3)Gal(b1-3)[Fuc(a1-4)]GlcNAc(b1-2)Man(a1-6)]Man(b1-4)GlcNAc(b1-4)GlcNAc
# Outline: as §1
# Gal(a1-3)Gal(b1-4)Glc = target: Gal(a1-3)Gal(b1-4)Glc
# Outline: as §1
# Gal(a1-3)Gal(b1-4)GlcNAc = target: Gal(a1-3)Gal(b1-4)GlcNAc
# Outline: as §1
binder,measurement,setting,value
B1,glycan array binding signal (z-score),Fuc(a1-3)GlcNAc,-0.006
same,glycan array binding signal (z-score),[1],0.261
same,glycan array binding signal (z-score),[2],-0.337
same,glycan array binding signal (z-score),[3],-0.243
same,glycan array binding signal (z-score),[4],1.23
same,glycan array binding signal (z-score),[5],-0.318
same,glycan array binding signal (z-score),[6],-0.479
same,glycan array binding signal (z-score),[7],-0.277
same,glycan array binding signal (z-score),[8],-0.3
same,glycan array binding signal (z-score),[9],-0.278
same,glycan array binding signal (z-score),[10],2.69
same,glycan array binding signal (z-score),[11],-0.305
same,glycan array binding signal (z-score),[12],0.219
same,glycan array binding signal (z-score),[13],-0.4
same,glycan array binding signal (z-score),[14],-0.321
same,glycan array binding signal (z-score),[15],-0.345
same,glycan array binding signal (z-score),[16],0.141
same,glycan array binding signal (z-score),[17],-0.011
same,glycan array binding signal (z-score),Fuc(a1-4)GlcNAc,-0.428
same,glycan array binding signal (z-score),Fuc(b1-3)GlcNAc,-0.213
same,glycan array binding signal (z-score),Gal(a1-2)Gal,-0.452
same,glycan array binding signal (z-score),Gal(a1-3)Gal,-0.473
same,glycan array binding signal (z-score),Gal(a1-3)Gal(b1-3)GlcNAc,-0.434
same,glycan array binding signal (z-score),[18],-0.42
same,glycan array binding signal (z-score),[19],-0.009
same,glycan array binding signal (z-score),[20],0.134
same,glycan array binding signal (z-score),[21],6.13
same,glycan array binding signal (z-score),[22],0.296
same,glycan array binding signal (z-score),Gal(a1-3)Gal(b1-4)Glc,-0.297
same,glycan array binding signal (z-score),Gal(a1-3)Gal(b1-4)GlcNAc,-0.286
